From PubChem BioAssay (NCATS)
This list was built around the results that the source calls inconclusive (neither active nor inactive); the mix of calls is not that of the screen. No potency is given beside an inconclusive call; the fits are too rough. Activity calls are given as the source filed them. Calls follow the shape of the dose curve; as a rule, active = well fitted inhibition curve with a large enough effect; inconclusive = small, poorly fitted or top-dose-only effect; inactive = no such curve, though single readings can be large or run the other way.

Assay: Primary fluorescence-based thiol-reactive (MSTI) qHTS assay for identification of artifact compounds. (AID 1845221);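 also: thiol-reactive compounds lower the probe fluorescence signal; nearly all actives have a fitted effect of over 65% in size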
Details: MSTI thiol-reactivity probe, 1 h; series mostly up to 53.8 µM
From the text: PI: Alexander Tropsha Ph.D.
UNC Eshelman School of Pharmacy
University of North Carolina, Chapel Hill, North Carolina
Hits from high-throughput screening (HTS) of chemical libraries are often false positives due to their interference with the assay detection technology. In response to this problem, we generated the largest publicly available library of chemical liabilities and developed a free webtool to predict HTS artifacts, both of which are described herein. More specifically, we generated, curated, and integrated HTS datasets for thiol reactivity, redox activity, and luciferase (firefly and nano) activity. Using these curated datasets, we developed and validated several Quantitative Structure-Interference Relationship (QSIR) models to predict nuisance behavior. […] These models were employed for virtual profiling of the National Center for Advancing Translational Science's (NCATS) in-house library, and 256 compounds for each assay were selected for the experimental validation of nuisance behavior. The BA for these external predictions ranged from 58 to 78% for compounds within the applicability domains of the models. […] The models developed in this study, along with aggregation models previously developed by our group (SCAM Detective) were implemented in "Liability Predictor," an online tool which may be used as part of chemical library design or for triaging HTS hits. Both the models and the curated datasets are publicly available at https://liability.mml.unc.edu/.
SEQUENCE No. (e.g., 1, 2, 3, etc.); […] (e.g., Cells, Incubation, Reagent, etc.); VALUE; DESCRIPTION.
1; Reagent; 4 uL; […].
2; Compounds and control; 16 nL; Kalypsis pin tool (Wako USA) equipped with a 1536-well pin head.
4; Detection; Fluorescence, ViewLux microplate reader, 525 nm excitation, 598 nm emission.
NOTES (numbers refer to Sequence numbers above)
1. Assays determining (E)-2-(4-mercaptostyryl)-1,3,3-trimethyl-3H-indol-1-ium (MSTI) reactivity were performed as previously described in the literature with modifications for the quick identification of compounds reacting with thiol. In brief, 4 uL of MSTI or positive control Acetyl-MSTI (final concentrations of 4 uM and 4 uM, respectively) in assay buffer (2% DMSO in 1X PBS pH 7.4) was dispensed into all wells of a 1536-well assay plate (solid-bottom black plate; Greiner Bio One, Monroe, NC).
2. A Wako Pin-tool (Wako Automation, Richmond, VA) was used to transfer 16 nL of compounds (consisting of 7-plates in qHTS format, final concentration range 18.3 nM to 114 uM) or control MLS001163887 (final concentration range 1.22 nM to 40 uM).
3. Plates were centrifuged (121xg, 15 seconds) and incubated for 1 hour at room temperature protected from light.
4. Samples were read for fluorescence (Ex/Em = 525(20)/598(25) nm) on a ViewLux CCD imager (PerkinElmer). Data were normalized to Acetyl-MSTI (0% activity) and MSTI (100% activity) and the resulting percent inhibition data were fitted to a 4-parameter Hill equation using NCATS in-house software.
Potency is read from the fitted curve at half-maximal effect; tags tell the direction and shape of the fitted curve.

| SMILES | Potency |
| --- | --- |
| CC[C@@]1(O)C(=O)OCc2c1cc1n(c2=O)Cc2cc3c(CN(C)C)c(O)ccc3nc2-1 | inactive |
| C#Cc1cccc(Nc2ncnc3cc(OCCOC)c(OCCOC)cc23)c1 | inactive |
| CN1CCN(C(c2ccccc2)c2ccccc2)CC1 | inconclusive [inhibitor, partial curve] |
| CN(C)c1ccc(-c2nc3ncc(Cl)c(N4CCN(CC(=O)Nc5nccs5)CC4)c3[nH]2)cc1 | inconclusive [inhibitor, partial curve] |
| COc1ccccc1[C@H](c1cccc2ccccc12)[C@@](C)(C#N)C(=O)N1CCC(c2cccc(C(F)(F)F)c2)CC1 | inactive |
| COc1ccc(S(=O)(=O)Nc2cccnc2Nc2ccc(O)cc2)cc1 | active: 4230 nM |
| CC[C@H](C)[C@H]1O[C@]2(CC[C@@H]1C)C[C@@H]1C[C@@H](C/C=C(\C)[C@@H](O[C@H]3C[C@H](OC)[C@@H](O[C@H]4C[C@H](OC)[C@@H](O)[C@H](C)O4)[C@H](C)O3)[C@@H](C)/C=C/C=C3\CO[C@@H]4[C@H](O)C(C)=C[C@@H](C(=O)O1)[C@]34O)O2 | inconclusive [inhibitor, full curve, poor fit] |
| CC[C@]1(O)C[C@@H]2CN(CCc3c([nH]c4ccccc34)[C@@](C(=O)OC)(c3cc4c(cc3OC)N(C)[C@H]3[C@@](O)(C(=O)OC)[C@H](OC(C)=O)[C@]5(CC)C=CCN6CC[C@]43[C@@H]65)C2)C1 | inconclusive [inhibitor, partial curve] |
| COc1cccc2c(NCc3ccccc3)nc(-n3c(N)nc4ccccc43)nc12 | inconclusive [inhibitor, partial curve] |
| CCN(CC)CCOCCOC(=O)C(CC)(CC)c1ccccc1 | inactive |
| O=C1NC(=O)C(c2cnc3ccccn23)=C1c1cn2c3c(cccc13)CN(C(=O)N1CCOCC1)CC2 | inconclusive [inhibitor, full curve] |
| O=C(c1ccc(C(=O)N2CCC(N3CCCC3)CC2)c(Nc2ccccc2)c1)N1CCC(N2CCCC2)CC1 | inconclusive [inhibitor, full curve, poor fit] |
| Nc1[nH]nc2nnc(-c3c(-c4ccccc4)nn4ccccc34)cc12 | inconclusive [inhibitor, partial curve] |
| COc1cc2c(Oc3ccc4[nH]c(C)cc4c3F)ncnc2cc1OCCCN1CCCC1 | inconclusive [inhibitor, single point] |
| COC(=O)[C@H]1[C@H]2C[C@@H]3c4[nH]c5cc(OC)ccc5c4CCN3C[C@H]2C[C@@H](OC(=O)/C=C/c2cc(OC)c(OC)c(OC)c2)[C@@H]1OC | inconclusive [inhibitor, full curve] |
| CCc1cc(Nc2nccc(-c3c(-c4ccc(OC)c(C(=O)Nc5c(F)cccc5F)c4)nc4ccccn34)n2)c(OC)cc1N1CCC(N2CCN(S(C)(=O)=O)CC2)CC1 | inconclusive [inhibitor, partial curve, poor fit] |
| COC(=O)[C@@H]1[C@H]2C[C@H]3c4[nH]c5ccccc5c4CCN3C[C@@H]2CC[C@@H]1O | inactive |
| C[C@@H](Oc1cc(-c2cnn(C3CCNCC3)c2)cnc1N)c1c(Cl)ccc(F)c1Cl | inconclusive [inhibitor, full curve] |
| Cc1ccc(C(=O)C(C)CN2CCCCC2)cc1 (configuration not stated) | inactive |
| Cc1ncc(-c2ccnc(Nc3ccc(S(C)(=O)=O)cc3)n2)n1C(C)C | inactive |
| c1ccc2c(CCNc3ccc(Nc4ccncc4)cc3)c[nH]c2c1 | active: 2670 nM |
| CC(C(O)c1ccc(O)cc1)N1CCC(Cc2ccccc2)CC1 (configuration not stated) | inactive |
| CC(C)c1cnn2c(NCc3ccccc3)cc(N[C@@H](CO)[C@H](O)CO)nc12 | inconclusive [inhibitor, partial curve] |
| COc1cc(Nc2ncc(F)c(Nc3ccc4c(n3)N(COP(=O)(O)O)C(=O)C(C)(C)O4)n2)cc(OC)c1OC | inconclusive [inhibitor, partial curve] |
| Cc1cc(SCc2sc(-c3ccc(C(F)(F)F)cc3)nc2C)ccc1OCC(=O)O | inactive |
| CNC(=O)c1ccccc1Nc1nc(Nc2ccc(N3CCOCC3)cc2OC)ncc1Cl | active: 1890 nM |
| CN1CCc2c(n(Cc3ccc(C(=O)NO)cc3)c3ccccc23)C1 | inconclusive [inhibitor, full curve] |
